The values below come from PMC4336329 (PLoS ONE, 2015).

Out of some 310,000 compounds screened, about 14,000 (4.5%) showed an effect of 50% or more. Effects have a minus sign here. The list shows a part of the results.
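Also: peak tail current of the secondary pulse compared with the same well before compound.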

Sequence of human ether-à-go-go-related gene (hERG) potassium channel (Q12809 whole entry, looked up): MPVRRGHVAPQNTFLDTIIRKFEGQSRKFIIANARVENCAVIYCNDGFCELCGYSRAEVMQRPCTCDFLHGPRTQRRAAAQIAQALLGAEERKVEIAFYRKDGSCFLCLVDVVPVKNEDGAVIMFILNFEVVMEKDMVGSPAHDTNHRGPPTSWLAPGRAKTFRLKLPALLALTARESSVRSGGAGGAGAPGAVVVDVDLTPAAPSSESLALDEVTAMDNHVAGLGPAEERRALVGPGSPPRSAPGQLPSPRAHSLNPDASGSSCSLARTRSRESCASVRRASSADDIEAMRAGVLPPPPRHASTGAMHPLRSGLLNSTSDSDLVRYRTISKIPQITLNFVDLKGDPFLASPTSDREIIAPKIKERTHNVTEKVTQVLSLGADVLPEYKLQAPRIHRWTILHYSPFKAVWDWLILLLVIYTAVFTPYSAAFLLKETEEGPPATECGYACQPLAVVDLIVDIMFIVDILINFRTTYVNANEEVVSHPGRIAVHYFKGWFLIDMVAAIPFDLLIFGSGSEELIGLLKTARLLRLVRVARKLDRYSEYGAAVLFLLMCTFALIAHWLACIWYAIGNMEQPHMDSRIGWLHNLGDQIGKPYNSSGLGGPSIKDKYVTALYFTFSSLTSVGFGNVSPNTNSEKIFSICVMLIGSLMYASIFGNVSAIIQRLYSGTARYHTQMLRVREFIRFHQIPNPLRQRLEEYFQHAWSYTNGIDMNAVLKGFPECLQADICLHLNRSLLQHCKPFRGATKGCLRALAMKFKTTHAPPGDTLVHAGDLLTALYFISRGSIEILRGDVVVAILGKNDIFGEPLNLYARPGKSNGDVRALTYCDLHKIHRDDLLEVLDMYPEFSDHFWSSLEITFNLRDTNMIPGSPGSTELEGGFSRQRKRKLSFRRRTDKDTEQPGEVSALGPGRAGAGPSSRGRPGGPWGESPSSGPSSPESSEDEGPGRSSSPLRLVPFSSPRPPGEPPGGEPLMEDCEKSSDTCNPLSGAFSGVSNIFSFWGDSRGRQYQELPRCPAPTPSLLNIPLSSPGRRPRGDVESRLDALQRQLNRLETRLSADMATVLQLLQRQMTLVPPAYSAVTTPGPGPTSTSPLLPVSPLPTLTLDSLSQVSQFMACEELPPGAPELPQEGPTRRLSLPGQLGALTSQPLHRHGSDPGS

The assay concerns the target human ether-à-go-go-related gene (hERG) potassium channel (human, UniProt Q12809). Nature of the assay: primary screen, population patch clamp on CHO cells stably expressing hERG.
For `COc1cc([N+](=O)[O-])cc2sc(NC(C)=O)nc12`, the “hERG current change (%, negative = inhibition) at 10uM” value is given as -0.654%. On to `C/C(CC(=O)NCc1ccco1)=N\NC(=O)c1ccc([N+](=O)[O-])cc1Cl`, for which the “hERG current change (%, negative = inhibition) at 10uM” value was found to be 10.5%. Take `CC(NC(=O)c1cc(=O)[nH]c2ccc(Br)cc12)c1ccccc1` (centres unmarked): the “hERG current change (%, negative = inhibition) at 10uM” value is listed as 8.69%.

Consider `O=C(Nc1nnc(-c2cccs2)o1)c1ccco1`, for which the “hERG current change (%, negative = inhibition) at 10uM” value is on record as -6.36%. For `Cc1ccc(S(=O)(=O)NC2CC3CCC2C3)cc1` (centres unmarked), the “hERG current change (%, negative = inhibition) at 10uM” value was -1.07%. Take `Cc1ccnc(SCCn2c(N3CCOCC3)nc3c2c(=O)[nH]c(=O)n3C)n1`: the “hERG current change (%, negative = inhibition) at 10uM” value is -24.7%.

With `O=C(CSc1ccc(S(=O)(=O)N2CCCCC2)cn1)Nc1ccccc1Br`, the “hERG current change (%, negative = inhibition) at 10uM” value is given as -34.3%. With `O=C(NC1CCSc2ccccc21)c1cc(S(=O)(=O)N2CCOCC2)ccc1Cl` (centres unmarked) the figure was -18%; with `Cn1nnc(NC(=O)CSc2ccc(Cl)cc2)n1`, 6.02%; with `COc1ccc(C(=O)NCc2cccnc2)cc1Br`, 6.79%. In the case of `CC(C)C(NC(=O)C(NC(=O)C1O[C@@H]2OC(C)(C)O[C@@H]2[C@H]2OC(C)(C)O[C@@H]12)C(C)C)C(=O)O` (some centres unmarked), the “hERG current change (%, negative = inhibition) at 10uM” value stood at 6.23%. With `CCC(Sc1nccn1C)C(=O)Nc1cccc2ccccc12` (centres unmarked) the figure was 7.42%. For the compound `CNC(=O)c1nc(C)n(-c2cc(Cl)cc(Cl)c2)n1`, the “hERG current change (%, negative = inhibition) at 10uM” value was determined as 5.34%.

As to `O=C1CN(S(=O)(=O)c2ccc(Cl)cc2C(F)(F)F)CCN1`, the “hERG current change (%, negative = inhibition) at 10uM” value is -4.17%.

With `Cc1cc(C)cc(OCc2ccc(C(=O)NN)o2)c1`, the “hERG current change (%, negative = inhibition) at 10uM” value was 14.2%. With `O=C(Cn1nc(C(=O)O)c2ccccc2c1=O)Nc1cc(Cl)ccc1-n1cncn1` the figure was 1.81%. In the case of `Cc1c(/C=N/O)sc2ccccc12`, the “hERG current change (%, negative = inhibition) at 10uM” value is -4.51%. With `COc1ccc(NC(=S)N2N=CCC2c2ccccc2)cc1` (centres unmarked) the figure was -16.8%; with `O=C(COC(=O)/C=C/C(=O)N1CCN(c2ccccc2)CC1)NC(c1ccccc1)c1ccccc1`, -47.8%; with `FC(F)(F)c1ccncc1-c1nnc(C2CCCCC2)o1`, 3.42%. As for `CCCN1CCN(CC(=O)Nc2nnc(CC)s2)CC1`, the “hERG current change (%, negative = inhibition) at 10uM” value was determined as 17.4%.

Regarding `COC(=O)C1=C(C(=O)OC)[C@@H]2N(C)c3ccc(OC)cc3[C@@]23C[C@@H](C(=O)OC)N(C(=O)c2ccc(Br)cc2)C3=N1`, the “hERG current change (%, negative = inhibition) at 10uM” value is listed as -17.7%. With `CC(C)(C)c1cc(C(=O)NNC(=O)Nc2cccc(Cl)c2)n(Cc2ccccc2)n1` the figure was 24.5%; with `CCCCCCOc1ccc(CN2CCN(C)CC2)cc1`, -28.4%; with `S=C1NCCN1`, 31.4%. For the compound `COc1ccc(-c2nnc(SCC(=O)N3CCCC(C)C3)o2)c(OC)c1` (centres unmarked), the “hERG current change (%, negative = inhibition) at 10uM” value worked out at 1.63%. The value for `CC(C)CN(C(=O)CSc1ccc2c(c1)OCCO2)c1c(N)n(CC(C)C)c(=O)[nH]c1=O` was -7.81%; that for `CCC(CC)c1nnc(NC(=O)C2=COCCO2)s1` was 2.04%; that for `Cc1occc1C(=O)N/N=C/C=C/c1ccccc1` was -49.6%.

`Cn1cnc(S(=O)(=O)NCc2cccs2)c1`: the “hERG current change (%, negative = inhibition) at 10uM” value was 18.4%. As to `C/C(=N\Nc1nc(C)cc(=O)[nH]1)C1CC1`, the “hERG current change (%, negative = inhibition) at 10uM” value is 10.1%. Take `COc1cc(OC)c(OC)cc1/C=C(\C#N)C(=O)NCc1cccs1`: the “hERG current change (%, negative = inhibition) at 10uM” value turned out to be 20.6%.

In the case of `COc1ccc(-c2nn(-c3ccccc3)cc2/C=N/Nc2ccc(S(N)(=O)=O)cc2[N+](=O)[O-])cc1OC`, the “hERG current change (%, negative = inhibition) at 10uM” value is recorded as 19.6%.

As for `CCCOc1ccc(CNCCCOCC)cc1OC.O=C(O)C(=O)O`, the “hERG current change (%, negative = inhibition) at 10uM” value is -32%. For the compound `COc1ccc(CN(C)C(=O)c2ccc(NC(=O)CC3SC(N4CCCC4)=NC3=O)cc2)c(OC)c1` (centres unmarked), the “hERG current change (%, negative = inhibition) at 10uM” value is given as 1.72%. As to `O=C(Nc1ccc(OC(=O)N2CCCC2)cc1)N1CCOCC1`, the “hERG current change (%, negative = inhibition) at 10uM” value is reported as 7.01%.

For the compound `CCc1cccc(CC)c1NC(=S)NC(C)c1ccccc1` (centres unmarked), the “hERG current change (%, negative = inhibition) at 10uM” value is -10.6%. Take `CCSc1nc2c(sc3ccccc32)c(=O)n1C(C)C`: the “hERG current change (%, negative = inhibition) at 10uM” value came to 8.57%.

As for `O=C(Nc1nccs1)C1CCN(S(=O)(=O)c2ccccc2)CC1`, the “hERG current change (%, negative = inhibition) at 10uM” value is listed as -14.1%.

Regarding `O=C(NCc1ccc2c(c1)OCO2)C1CC(=O)N(CCc2ccc(Cl)cc2)C1` (centres unmarked), the “hERG current change (%, negative = inhibition) at 10uM” value is recorded as -54.1%.

In the case of `Cc1ccc(OCC(=O)Nc2ccc(C)c(S(=O)(=O)N3CCCCC3)c2)c([N+](=O)[O-])n1`, the “hERG current change (%, negative = inhibition) at 10uM” value is reported as -45.4%. With `N#Cc1cnn(-c2ccccc2)c1NC(=O)CN1CCOCC1`, the “hERG current change (%, negative = inhibition) at 10uM” value stood at 4.91%.

Take `O=S1(=O)N=C(Nc2ccc(N3CCOCC3)c(Cl)c2)c2ccccc21`: the “hERG current change (%, negative = inhibition) at 10uM” value was 17.4%. With `Nc1nc2c(ncn2COC(CO)CO)c(=O)[nH]1` the figure was 17.6%; with `CC(C)C(=O)NC(=S)Nc1ccc(CN2CCOCC2)cc1`, 7.74%; with `COc1ccc(CNC(=O)C2CCCN(c3nn4c(=O)cc(C)nc4s3)C2)cc1` (centres unmarked), -40.1%. With `O=c1c2ccccc2nnn1Cc1ccccc1Cl` the figure was 12.2%; with `Cc1ncc(CN2CCC(C(=O)Nc3ccc(-n4cccn4)cc3)CC2)s1`, -21.2%; with `COc1ccc(NC(=O)COc2ccc(-c3ccccc3)cc2)cc1`, 2.28%. With `O=C1NC(c2ccc3c(c2)OCO3)Nc2ccccc21` (centres unmarked) the figure was 10.5%.

As to `O=C(CCCN1C(=O)c2ccccc2C1=O)Nc1nccs1`, the “hERG current change (%, negative = inhibition) at 10uM” value is recorded as -3.89%. On to `N/C(=N\NS(=O)(=O)c1ccccc1C(F)(F)F)c1ccccn1`, for which the “hERG current change (%, negative = inhibition) at 10uM” value is given as -9.06%. As to `COc1ccc(NC(=S)N(CCN2CCOCC2)Cc2cc3cc4c(cc3[nH]c2=O)OCO4)cc1`, the “hERG current change (%, negative = inhibition) at 10uM” value was -4.36%. The value for `CCOc1ccc(S(=O)(=O)Nc2nc3ccccc3nc2Nc2ccc(N3CCOCC3)cc2)cc1` was -20.5%.

Take `Nc1ccc2nonc2c1[N+](=O)[O-]`: the “hERG current change (%, negative = inhibition) at 10uM” value is 33.9%.

Take `OCC[C@@H]1C[C@H](O)[C@@H](O)[C@@]2(CCc3ccccc3CO2)O1`: the “hERG current change (%, negative = inhibition) at 10uM” value came to 11.7%. With `Cc1cc(N2CCOCC2)n2ncc(-c3ccccc3Cl)c2n1` the figure was -5.97%. For `CCOc1cc(C)c(C(C)C)cc1S(=O)(=O)n1cnc(C)c1`, the “hERG current change (%, negative = inhibition) at 10uM” value is -18.7%. For the compound `O=C(OCCCN=C1NS(=O)(=O)c2ccccc21)c1ccc([N+](=O)[O-])cc1`, the “hERG current change (%, negative = inhibition) at 10uM” value is -32.3%.

On to `O=C1c2ccccc2S(=O)(=O)c2cc(N3CCN(c4ccccn4)CC3)ccc21`, for which the “hERG current change (%, negative = inhibition) at 10uM” value is reported as 4.69%. Turning to `Oc1ccc(N=Nc2ccccc2)cc1`, the “hERG current change (%, negative = inhibition) at 10uM” value is 14.7%. As for `Cc1cc(C)nc(SCC(=O)NC2CCCCC2C)n1` (centres unmarked), the “hERG current change (%, negative = inhibition) at 10uM” value was 14.6%. For the compound `COc1ccc2c(c1)CC/C2=N\OC(=O)c1ccccc1OC`, the “hERG current change (%, negative = inhibition) at 10uM” value is recorded as 3.97%. The value for `O=C(N/N=C/c1cccnc1)c1ccccc1Cl` was 14.2%; that for `O=C(COC(=O)CSc1nnc(-c2ccc(Cl)cc2)o1)Nc1cc(Cl)cc(Cl)c1` was 16.1%; that for `CC(C)(C)C1CCc2onc(C(=O)Nc3cccnc3)c2C1` (centres unmarked) was -28.6%. In the case of `COc1cc(C(=O)OCC#N)ccc1OCc1c(C)noc1C`, the “hERG current change (%, negative = inhibition) at 10uM” value came to 2.86%. In the case of `Cc1cccc(C)c1NCc1nnc(SCC(=O)Nc2nc(-c3ccccc3)cs2)n1-c1ccccc1`, the “hERG current change (%, negative = inhibition) at 10uM” value was -4.69%. The value for `COc1ccccc1CNC(=O)Cn1cccc1C(=O)c1ccccc1C` was -2.95%. For `Cc1cccc(NS(=O)(=O)c2ccc(C(=O)N3CCN(c4ccccc4O)CC3)cc2)c1C`, the “hERG current change (%, negative = inhibition) at 10uM” value stood at 11.7%. With `COCCOC(=O)c1c(C)nc(SCC(=O)Nc2cccc3ccccc23)c(C#N)c1-c1ccco1` the figure was 0.409%.

With `CCOC(=O)/C=C/C(=O)Nc1nccs1`, the “hERG current change (%, negative = inhibition) at 10uM” value is given as 17.7%. Turning to `COc1ccc(-c2cc3nc4ccccc4n3c(N)c2C#N)cc1`, the “hERG current change (%, negative = inhibition) at 10uM” value came out at 2.63%.

With `CC(OC(=O)c1cc(=O)c2ccccc2o1)C(=O)Nc1ccc(N(C)C)cc1` (centres unmarked), the “hERG current change (%, negative = inhibition) at 10uM” value is on record as 4.51%.

Turning to `c1cncc(-c2nc(NCC3CCCO3)c3ccccc3n2)c1` (centres unmarked), the “hERG current change (%, negative = inhibition) at 10uM” value amounted to 7.02%. As to `CCc1cc2c(=O)n(CC)c(SC(C)C(=O)Nc3c(C)n(C)n(-c4ccccc4)c3=O)nc2s1` (centres unmarked), the “hERG current change (%, negative = inhibition) at 10uM” value is recorded as -19.1%. With `CC1CC(C)CN(C(=O)CCNS(=O)(=O)c2cccs2)C1` (centres unmarked) the figure was -9.51%; with `CCc1cc(=O)oc2cc(C)cc(OCC(=O)NCCc3c[nH]c4ccccc34)c12`, 8.45%. The value for `CC1(C)CC(=O)C(C=NCCCO)=C(O)C1` was 5.07%. Turning to `C/C(=N\NC(=O)c1ccc(N/N=C(\C)c2ccc(O)cc2)cc1)c1ccc(O)cc1.O=S(=O)(O)O`, the “hERG current change (%, negative = inhibition) at 10uM” value is listed as -15.8%. The value for `CCc1nnc(NC(=O)CCC(=O)NC2CCCCC2)s1` was 15.8%. With `CCOC(=O)c1sc(NC(=O)c2ccc(C)s2)cc1C` the figure was 5.51%. As to `Cc1ccc(CS(=O)Cc2ccc(C(=O)NCc3ccccc3Cl)o2)cc1` (centres unmarked), the “hERG current change (%, negative = inhibition) at 10uM” value is -13.8%. As for `CCn1c(O)c(C=Nc2ccc(N3CCOCC3)cc2)c(=O)n(CC)c1=S`, the “hERG current change (%, negative = inhibition) at 10uM” value is reported as -20.5%. With `Cc1cc(C(=O)N/N=C\C(Br)=C\c2ccccc2)c(C)o1` the figure was 14.8%; with `Cn1c(CNC(=O)c2ccco2)nnc1SCC(=O)Nc1ccc(Cl)cc1`, -26.1%.

As to `COc1ccccc1-n1c(-c2ccco2)n[nH]c1=S`, the “hERG current change (%, negative = inhibition) at 10uM” value is 15.8%.

As to `O=C(C1CCCN(Cc2ccccc2C(F)(F)F)C1)N1CCCCC1.O=C(O)C(=O)O` (centres unmarked), the “hERG current change (%, negative = inhibition) at 10uM” value was -7.75%. The value for `CCOc1cc(/C=C(/C#N)c2nc3ccccc3[nH]2)ccc1OCc1ccc(C(=O)O)o1` was 3.75%.
